# Assay results: PubChem BioAssay (Tox21)
# Values joined by “and” are separate entries in the source; they are usually repeats but may differ in a detail not shown here. Equal values may be shown once. Inconclusive means that the source gave no clear call. Such entries were picked first, then a sample of the others. Potencies of inconclusive entries are doubtful fits and often do not repeat. Active and inactive are the calls of the source. Unless noted, calls come from the whole dose curve; as a rule, active = well fitted curve in the direction sought with a large enough effect in the repeat runs; inconclusive = weak or mixed curves; inactive = no such curve, though single readings can be large; an effect the other way counts as inactive or inconclusive.
# What was measured:
# [1] = molecular target: Glucocorticoid receptor (Homo sapiens) (UniProt P04150); assay: qHTS assay to identify small molecule antagonists of the glucocorticoid receptor (GR) signaling pathway (AID 720692; active = well fitted inhibition curve with a large enough effect in the signal ratio in the repeat runs, not every such curve was filed as active; inconclusive = weak or mixed curves, or effect the other way; inactive = no such curve, though single readings can be large or run the other way; the % refers to the signal ratio); details: GR-bla HeLa, beta-lactamase FRET ratio, dexamethasone-stimulated, 18 h; activity change, negative = inhibition: at 58.5 µM (top of the series) unless noted
# Summary of the method: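 GRE-bla HeLa line, dex-stimulated (5 nM final). Compound exposure 18 h, 37 C. Beta-lactamase FRET read after 2 h RT substrate.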
# [2] = qHTS assay for identifying genotoxic compounds that show differential cytotoxicity against isogenic chicken DT40 cell lines with known DNA damage response pathways - wild type cell line (AID 743012); details: DT40 wild type chicken cells viability, CellTiter-Glo, 40 h; activity change, negative = cytotoxicity: at 68.4 µM (top of the series) unless noted; note: nearly all actives have a fitted effect of over 60% in size
# Summary of the method: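 300 wt DT40 cells/well; cpd (DMSO) pintool-transferred after ~0.5 h at 37 C/5% CO2; 40 h incubation; CellTiter-Glo added, 30 min RT; luminescence read.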
# [3] = qHTS assay for identifying genotoxic compounds that show differential cytotoxicity against isogenic chicken DT40 cell lines with known DNA damage response pathways - Rev3 mutant cell line (AID 743014); details: chicken DT40 Rev3-/- viability, CellTiter-Glo, 40 h; activity, negative = cytotoxicity: at 68.4 µM (top of the series) unless noted; note: nearly all actives have a fitted effect of over 55% in size
# [4] = qHTS assay for identifying genotoxic compounds that show differential cytotoxicity against isogenic chicken DT40 cell lines with known DNA damage response pathways - Rad54/Ku70 mutant cell line (AID 743015); details: DT40 Rad54/Ku70 mutant viability, CellTiter-Glo, 40 h; activity change, negative = cytotoxicity: at 66.8 µM (top of the series); note: nearly all actives have a fitted effect of over 60% in size
# [5] = molecular target: Androgen receptor (Homo sapiens) (UniProt P10275); assay: qHTS assay to identify small molecule antagonists of the androgen receptor (AR) signaling pathway (AID 743035; active = well fitted inhibition curve with a large enough effect in the signal ratio in the repeat runs, not every such curve was filed as active; inconclusive = weak or mixed curves, or effect the other way; inactive = no such curve, though single readings can be large or run the other way; the % refers to the signal ratio); details: HEK293 AR-UAS-bla, R1881-stimulated, beta-lactamase FRET, 16 h; activity change, negative = inhibition: at 58.5 µM (top of the series) unless noted
# Summary of the method: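 In this cell-based reporter screen, compounds were tested in concentration series against R1881-activated HEK293 cells expressing beta-lactamase under UAS control; after 16 h at 37C, FRET substrate was added and fluorescence read 2 h later.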
# [6] = qHTS assay to identify small molecule antagonists of the androgen receptor (AR) signaling pathway - cell viability counter screen (AID 743033; note: nearly all actives have a fitted effect of over 45% in size); details: AR-bla HEK293 viability, CellTiter-Glo luminescence, 16 h; activity change, negative = cytotoxicity: at 58.5 µM (top of the series) unless noted
# % is set by controls: 0 for no effect and ±100 for the full control effect; potency is the fitted concentration of half-maximal effect; tags give direction and shape of the fitted curve or compound fluorescence and quenching.
# Chain of UniProt P10275 (P10275 whole entry, looked up): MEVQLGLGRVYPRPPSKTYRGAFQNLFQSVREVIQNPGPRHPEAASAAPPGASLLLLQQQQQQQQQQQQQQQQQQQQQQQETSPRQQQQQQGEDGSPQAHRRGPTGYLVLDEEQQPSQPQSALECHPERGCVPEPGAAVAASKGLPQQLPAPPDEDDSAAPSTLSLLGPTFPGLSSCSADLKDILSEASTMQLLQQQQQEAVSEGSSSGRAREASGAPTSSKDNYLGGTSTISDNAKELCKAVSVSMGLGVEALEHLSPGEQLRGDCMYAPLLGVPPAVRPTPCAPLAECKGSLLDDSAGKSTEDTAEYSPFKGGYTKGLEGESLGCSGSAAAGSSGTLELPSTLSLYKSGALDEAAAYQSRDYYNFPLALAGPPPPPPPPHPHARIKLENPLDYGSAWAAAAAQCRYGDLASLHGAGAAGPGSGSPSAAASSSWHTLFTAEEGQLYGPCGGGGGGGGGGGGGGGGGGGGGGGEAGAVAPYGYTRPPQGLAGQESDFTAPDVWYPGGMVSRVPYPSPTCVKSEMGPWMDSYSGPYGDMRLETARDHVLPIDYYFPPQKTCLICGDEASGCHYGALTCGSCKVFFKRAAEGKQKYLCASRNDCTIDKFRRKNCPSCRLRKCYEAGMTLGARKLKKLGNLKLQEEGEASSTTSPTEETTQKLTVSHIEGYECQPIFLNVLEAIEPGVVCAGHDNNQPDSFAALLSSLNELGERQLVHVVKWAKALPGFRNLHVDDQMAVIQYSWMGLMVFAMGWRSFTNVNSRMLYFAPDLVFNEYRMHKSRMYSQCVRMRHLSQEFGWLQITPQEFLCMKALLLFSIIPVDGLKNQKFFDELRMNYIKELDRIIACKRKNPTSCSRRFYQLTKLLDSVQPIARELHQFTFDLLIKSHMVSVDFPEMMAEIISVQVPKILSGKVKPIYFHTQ
# Chain of UniProt P04150 (P04150 whole entry, looked up): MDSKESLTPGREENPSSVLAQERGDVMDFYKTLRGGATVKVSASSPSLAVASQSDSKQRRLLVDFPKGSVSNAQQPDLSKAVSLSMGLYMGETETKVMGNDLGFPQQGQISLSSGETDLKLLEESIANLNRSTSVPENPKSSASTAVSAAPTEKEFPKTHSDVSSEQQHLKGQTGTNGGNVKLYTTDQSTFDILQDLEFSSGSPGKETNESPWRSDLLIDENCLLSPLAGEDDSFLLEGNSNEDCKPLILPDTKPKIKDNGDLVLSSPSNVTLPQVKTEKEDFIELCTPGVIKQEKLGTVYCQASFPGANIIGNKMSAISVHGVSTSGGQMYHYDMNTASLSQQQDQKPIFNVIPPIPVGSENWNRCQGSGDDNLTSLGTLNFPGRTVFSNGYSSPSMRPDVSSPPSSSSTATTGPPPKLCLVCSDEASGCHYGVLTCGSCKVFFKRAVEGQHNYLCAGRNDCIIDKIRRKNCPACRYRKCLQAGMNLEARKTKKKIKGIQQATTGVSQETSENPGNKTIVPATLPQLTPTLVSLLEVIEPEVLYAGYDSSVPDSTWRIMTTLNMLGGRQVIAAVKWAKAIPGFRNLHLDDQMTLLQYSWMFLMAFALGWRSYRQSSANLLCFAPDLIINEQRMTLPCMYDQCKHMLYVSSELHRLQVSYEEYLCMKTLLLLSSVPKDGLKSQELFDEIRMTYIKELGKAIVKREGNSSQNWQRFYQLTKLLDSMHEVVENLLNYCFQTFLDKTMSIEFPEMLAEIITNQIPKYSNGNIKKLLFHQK
compound,measurement,setting,value
N=c1nc(N2CCCCC2)cc(N)n1O,Potency,[1],inactive
same,Potency,[2],"inconclusive: 18.8 µM [rising, partial curve, poor fit]"
same,Potency,[3],"inconclusive: 23.7 µM [rising, partial curve, poor fit]"
C=CCOc1cc(Cl)ccc1C(=O)NCCN(CC)CC,Potency,[1],inactive
same,Potency,[2],active: 15 µM
same,Potency,[3],active: 29.8 µM
same,Potency,[4],"inconclusive: 23.7 µM [cytotoxic, partial curve]"
CCOc1cc(OCC)c(C(C)=O)cc1OCC,"activity change, negative = inhibition",[1],inconclusive: -27.3%
same,Potency,[2],"inconclusive: 67.3 µM [cytotoxic, single point]"
same,Potency,[4],"inconclusive: 67.3 µM [cytotoxic, single point]"
C[C@@H]1O[C@@H](O[C@@H]2[C@@H](O)[C@H](OCCc3ccc(O)c(O)c3)O[C@H](CO[C@@H]3O[C@H](CO)[C@@H](O)[C@H](O)[C@H]3O)[C@H]2OC(=O)/C=C/c2ccc(O)c(O)c2)[C@H](O)[C@H](O)[C@H]1O,"activity change, negative = inhibition",[1],inconclusive: -22.7%
same,Potency,[2],"inconclusive: 66.4 µM [cytotoxic, single point]"
same,Potency,[3],"inconclusive: 66.4 µM [cytotoxic, single point]"
same,Potency,[4],"inconclusive: 66.4 µM [cytotoxic, single point]"
NC(=O)C1(N2CCCCC2)CCN(CCCC(=O)c2ccc(F)cc2)CC1,"activity change, negative = inhibition",[1],inconclusive: -6.4%
same,Potency,[2],"inconclusive: 26.6 µM [cytotoxic, single point]"
same,Potency,[3],inconclusive: 33.5 µM [cytotoxic]
same,Potency,[4],inconclusive: 33.5 µM [cytotoxic]
CC(=O)c1ccc2c(c1)N(CCCN(C)C)c1ccccc1S2,Potency,[1],inactive
same,Potency,[2],active: 12.7 µM
same,Potency,[3],"inconclusive: 14.3 µM [cytotoxic, single point]"
same,Potency,[4],inconclusive: 12.7 µM [cytotoxic]
N#C[C@@H]1CC(F)(F)CN1C(=O)CNC1CC2CCC(C1)N2c1ncccn1 (some centres undefined),Potency,[1],inactive
same,Potency,[2],"inconclusive: 68.6 µM [cytotoxic, single point]"
same,Potency,[3],"inconclusive: 68.6 µM [cytotoxic, single point]"
same,Potency,[4],"inconclusive: 68.6 µM [cytotoxic, single point]"
same,Potency,[5],inactive
CCCCCCCCCCCCOCCO,"activity change, negative = inhibition",[1],inconclusive: 21%
same,Potency,[2],"inconclusive: 0.243 µM [rising, single point]"
same,Potency,[3],"inconclusive: 43.3 µM [cytotoxic, partial curve, poor fit]"
same,"activity change, negative = inhibition",[5],inconclusive: -22.1%
COc1cc(CCC(C)=O)ccc1O,Potency,[1],inactive
same,Potency,[2],inactive
same,Potency,[6],inactive
same,Potency,[5],"inconclusive: 2.45 µM [rising, full curve]"
CN(C)C(=O)C(CCN1CCC(O)(c2ccc(Cl)cc2)CC1)(c1ccccc1)c1ccccc1,"activity change, negative = inhibition",[1],inconclusive: -2.97%
same,Potency,[2],active: 5.96 µM
same,Potency,[4],active: 10.6 µM
same,Potency,[6],"inconclusive: 26.8 µM [cytotoxic, partial curve]"
CCCCOC(=O)C(C)Oc1ccc(Oc2ccc(C(F)(F)F)cn2)cc1 (centres undefined),Potency,[1],"inconclusive: 389 nM [inhibitor, full curve, poor fit]"
same,Potency,[2],"inconclusive: 68.6 µM [cytotoxic, single point]"
same,Potency,[3],"inconclusive: 68.6 µM [cytotoxic, partial curve, poor fit]"
same,Potency,[4],"inconclusive: 68.6 µM [cytotoxic, single point]"
COc1cc2c(N3CCN(C(=O)Nc4ccc(OC(C)C)cc4)CC3)ncnc2cc1OCCCN1CCCCC1,Potency,[1],inconclusive: 239 nM [activator]
same,Potency,[2],active: 6.68 µM
same,Potency,[6],active: 6.01 µM
CN(C(=O)CCCOc1ccc2[nH]c(=O)ccc2c1)C1CCCCC1,Potency,[1],inactive
same,Potency,[2],"inconclusive: 26.6 µM [cytotoxic, partial curve]"
same,Potency,[4],"inconclusive: 33.5 µM [cytotoxic, single point]"
Oc1ccccc1C=NCc1ccccc1,Potency,[1],inactive
same,Potency,[2],"inconclusive: 29.8 µM [cytotoxic, partial curve, poor fit]"
same,Potency,[4],"inconclusive: 33.5 µM [cytotoxic, single point]"
CCCCCCCCSCC,"activity change, negative = inhibition",[1],inconclusive: 22.7%
same,"activity change, negative = cytotoxicity",[2],inconclusive: 20.2%
same,Potency,[4],inactive
CN1CCN(C(c2ccccc2)c2ccccc2)CC1,"activity change, negative = inhibition",[1],inconclusive: 34% [at 27 µM]
same,Potency,[2],inactive
same,Potency,[3],inactive
same,Potency,[6],"inconclusive: 0.0018 µM [cytotoxic, full curve, poor fit]"
CCCCCC/C(C=O)=C\c1ccccc1,"activity change, negative = inhibition",[1],inconclusive: 1.55%
same,Potency,[2],"inconclusive: 34.8 µM [rising, partial curve]"
same,Potency,[3],"inconclusive: 38.6 µM [cytotoxic, partial curve]"
same,Potency,[4],"inactive and inconclusive: 30.6 µM [cytotoxic, partial curve, poor fit]"
COC(=O)/C=C/C(C)=C\C=C\C(C)=C\C=C\C=C(C)\C=C\C=C(C)\C=C\C(=O)O,"activity change, negative = inhibition",[1],inconclusive: -25.3%
same,Potency,[2],inconclusive: 61.1 µM [cytotoxic]
same,Potency,[4],"inconclusive: 68.6 µM [cytotoxic, single point]"
C=CCOC(=O)c1ccc(C(=O)OCC=C)c(C(=O)OCC=C)c1,"activity change, negative = inhibition",[1],inconclusive: 11.2%
same,Potency,[2],"inconclusive: 48.6 µM [cytotoxic, partial curve, poor fit]"
same,Potency,[3],"inconclusive: 48.6 µM [cytotoxic, partial curve, poor fit]"
same,Potency,[4],"inconclusive: 48.6 µM [cytotoxic, partial curve, poor fit]"
CC(=O)OC[C@H]1O[C@@](COC(C)=O)(O[C@H]2O[C@H](COC(C)=O)[C@@H](OC(C)=O)[C@H](OC(C)=O)[C@H]2OC(C)=O)[C@@H](OC(C)=O)[C@@H]1OC(C)=O,"activity change, negative = inhibition",[1],inconclusive: -6.22%
same,Potency,[2],"inconclusive: 26.6 µM [rising, partial curve, poor fit]"
same,Potency,[4],inactive
CCN(CC)C(C)CN1c2ccccc2Sc2ccccc21 (centres undefined),"activity change, negative = inhibition",[1],inconclusive: 14.6% [at 27 µM]
same,Potency,[2],"inconclusive: 14.3 µM [cytotoxic, single point]"
same,Potency,[4],"inconclusive: 14.3 µM [cytotoxic, single point]"
COc1ccc(CN(CCN(C)C)c2ccccn2)cc1,Potency,[1],"inconclusive: 12.2 µM [activator, partial curve] and inconclusive: 25.4 µM [activator, partial curve, poor fit]"
same,Potency,[2],"inconclusive: 13.3 µM [cytotoxic, partial curve] and inconclusive: 70.9 µM [cytotoxic, single point]"
same,Potency,[3],"inconclusive: 70.9 µM [cytotoxic, single point]"
same,Potency,[4],"inconclusive: 70.9 µM [cytotoxic, single point]"
CC(=O)OCC(=O)[C@H]1CC[C@H]2[C@@H]3CCC4=CC(=O)CC[C@]4(C)[C@H]3CC[C@]12C,Potency,[1],active: 848 nM
same,Potency,[2],"inconclusive: 8.41 µM [cytotoxic, partial curve]"
same,Potency,[3],"inconclusive: 4.73 µM [cytotoxic, partial curve]"
same,Potency,[4],"inconclusive: 6.68 µM [cytotoxic, partial curve, poor fit]"
same,Potency,[5],inactive
C=C(C)c1cccc(C(C)(C)N=C=O)c1,"activity change, negative = inhibition",[1],inconclusive: 30.5% [activator]
same,Potency,[2],"inconclusive: 27.3 µM [cytotoxic, single point]"
same,Potency,[3],"inconclusive: 24.3 µM [cytotoxic, partial curve]"
same,Potency,[4],"inconclusive: 24.3 µM [cytotoxic, partial curve]"
COc1ccc(N=Nc2cc(C)c(N=Nc3ccc(S(=O)(=O)O)cc3)cc2OC)cc1,Potency,[1],inactive
same,Potency,[2],inactive
same,Potency,[4],inactive
Nc1ccn([C@@H]2O[C@H](CO)[C@@H](O)[C@@H]2O)c(=O)n1,"activity change, negative = inhibition",[1],inconclusive: 16.6%
same,Potency,[2],active: 0.0611 µM
same,Potency,[3],active: 0.0433 µM
same,Potency,[4],active: 0.0433 µM
O=c1[nH][nH]c2ccccc12,Potency,[1],"inconclusive: 62800 nM [rising, partial curve, poor fit]"
same,Potency,[2],"inconclusive: 49.4 µM [rising, partial curve]"
same,Potency,[3],"inconclusive: 78.4 µM [cytotoxic, partial curve, poor fit]"
same,Potency,[5],"inconclusive: 7.05 µM [rising, full curve]"
O=C(c1ccc(O)cc1)c1ccc(O)c(O)c1O,"activity change, negative = inhibition",[1],inconclusive: -17.6% [at 78.9 µM]
same,Potency,[2],"inconclusive: 68.9 µM [cytotoxic, single point]"
same,Potency,[3],inconclusive: 68.9 µM [cytotoxic]
CC(C)(O)c1ccc(CNC(=O)c2cccnc2Oc2ccc(F)cc2)cc1,Potency,[1],inactive
same,Potency,[2],"inconclusive: 68.6 µM [cytotoxic, single point]"
same,Potency,[3],"inconclusive: 96.9 µM [cytotoxic, single point]"
same,Potency,[4],"inconclusive: 68.6 µM [cytotoxic, single point]"
same,Potency,[6],"inconclusive: 49 µM [cytotoxic, partial curve, poor fit]"
CC1CCC(CO)CC1 (centres undefined),Potency,[1],"inconclusive: 28500 nM [activator, partial curve]"
same,Potency,[2],inactive
same,Potency,[6],inactive
O=C(OCCc1ccccc1)c1ccccc1,"activity change, negative = inhibition",[1],inconclusive: 26.6%
same,Potency,[3],inactive
CCN1CCCC1CNC(=O)c1cc(S(N)(=O)=O)ccc1OC (centres undefined),Potency,[1],"inconclusive: 54900 nM [cytotoxic, single point]"
same,Potency,[3],"inconclusive: 30.6 µM [cytotoxic, single point]"
CCCC[P+](CCCC)(CCCC)CCCC,Potency,[1],inactive
same,Potency,[3],"inconclusive: 3.86 µM [cytotoxic, full curve, poor fit]"
O=CNc1ccccc1,"activity change, negative = inhibition",[1],inconclusive: 31.9% [activator] [at 78.9 µM]
same,Potency,[3],"inconclusive: 77.8 µM [cytotoxic, single point]"
